# Experimental data as given in the supplement of paper PMC8728848.
# The list shows a part of the results.
# Key:
# Test in all cases: glycan array binding signal (z-score within array); higher = stronger binding
# Conditions in all cases: glycan notation: IUPAC condensed, linker removed
# [1] = biological target: Neu5Ac(a2-3)Gal(b1-4)GlcNAc(b1-6)GalNAc
# Outline: (§1)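 The binding signal is a Z-score computed within each array. Data were drawn from 3228 arrays in the Consortium for Functional Glycomics database, restricted to those with a known protein sequence. Scores were averaged over arrays of the same protein sequence at different concentrations or buffers, and over linkers, and negative values can be taken as non-binding.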
# [2] = biological target: Neu5Ac(a2-3)Gal(b1-4)GlcNAc(b1-6)[Gal(b1-3)]GalNAc
# Outline: as §1
# [3] = biological target: Neu5Ac(a2-3)Gal(b1-4)GlcNAc(b1-6)[Neu5Ac(a2-3)Gal(b1-3)]GalNAc
# Outline: as §1
# [4] = biological target: Neu5Ac(a2-3)Gal(b1-4)GlcNAc6S
# Outline: as §1
# [5] = biological target: Neu5Ac(a2-3)Gal(b1-4)[Fuc(a1-3)]GlcNAc
# Outline: as §1
# [6] = biological target: Neu5Ac(a2-3)Gal(b1-4)[Fuc(a1-3)]GlcNAc(b1-2)Man
# Outline: as §1
# [7] = biological target: Neu5Ac(a2-3)Gal(b1-4)[Fuc(a1-3)]GlcNAc(b1-3)Gal
# Outline: as §1
# [8] = biological target: Neu5Ac(a2-3)Gal(b1-4)[Fuc(a1-3)]GlcNAc(b1-3)Gal(b1-4)GlcNAc
# Outline: as §1
# [9] = biological target: Neu5Ac(a2-3)Gal(b1-4)[Fuc(a1-3)]GlcNAc(b1-3)Gal(b1-4)[Fuc(a1-3)]GlcNAc(b1-3)Gal(b1-4)[Fuc(a1-3)]GlcNAc
# Outline: as §1
# [10] = biological target: Neu5Ac(a2-3)Gal(b1-4)[Fuc(a1-3)]GlcNAc(b1-3)GalNAc
# Outline: as §1
# [11] = biological target: Neu5Ac(a2-3)Gal(b1-4)[Fuc(a1-3)]GlcNAc(b1-6)[Gal(b1-3)]GalNAc
# Outline: as §1
# [12] = biological target: Neu5Ac(a2-3)Gal(b1-4)[Fuc(a1-3)]GlcNAc(b1-6)[Neu5Ac(a2-3)Gal(b1-3)]GalNAc
# Outline: as §1
# [13] = biological target: Neu5Ac(a2-3)Gal(b1-4)[Fuc(a1-3)]GlcNAc6S
# Outline: as §1
# [14] = biological target: Neu5Ac(a2-3)Gal6S(b1-4)GlcNAc
# Outline: as §1
# [15] = biological target: Neu5Ac(a2-3)Gal6S(b1-4)[Fuc(a1-3)]GlcNAc
# Outline: as §1
# [16] = biological target: Neu5Ac(a2-3)GalNAc
# Outline: as §1
# [17] = biological target: Neu5Ac(a2-3)GalNAc(b1-4)GlcNAc
# Outline: as §1
# [18] = biological target: Neu5Ac(a2-3)[GalNAc(b1-4)]Gal(b1-4)Glc
# Outline: as §1
# [19] = biological target: Neu5Ac(a2-3)[GalNAc(b1-4)]Gal(b1-4)GlcNAc
# Outline: as §1
# [20] = biological target: Neu5Ac(a2-3)[GalNAc(b1-4)]Gal(b1-4)GlcNAc(b1-3)GalNAc
# Outline: as §1
# [21] = biological target: Neu5Ac(a2-3)[Neu5Ac(a2-6)]GalNAc
# Outline: as §1
# [22] = biological target: Neu5Ac(a2-6)Gal
# Outline: as §1
# [23] = biological target: Neu5Ac(a2-6)Gal(b1-3)GlcNAc(b1-3)[Gal(b1-4)GlcNAc(b1-6)]Gal(b1-4)Glc
# Outline: as §1
# [24] = biological target: Neu5Ac(a2-6)Gal(b1-4)Glc
# Outline: as §1
# [25] = biological target: Neu5Ac(a2-6)Gal(b1-4)GlcNAc
# Outline: as §1
# [26] = biological target: Neu5Ac(a2-6)Gal(b1-4)GlcNAc(b1-2)Man
# Outline: as §1
# [27] = biological target: Neu5Ac(a2-6)Gal(b1-4)GlcNAc(b1-2)Man(a1-3)Man(b1-4)GlcNAc(b1-4)GlcNAc
# Outline: as §1
# [28] = biological target: Neu5Ac(a2-6)Gal(b1-4)GlcNAc(b1-2)Man(a1-3)[Gal(b1-4)GlcNAc(b1-2)Man(a1-6)]Man(b1-4)GlcNAc(b1-4)GlcNAc
# Outline: as §1
# [29] = biological target: Neu5Ac(a2-6)Gal(b1-4)GlcNAc(b1-2)Man(a1-3)[GlcNAc(b1-2)Man(a1-6)]Man(b1-4)GlcNAc(b1-4)GlcNAc
# Outline: as §1
# [30] = biological target: Neu5Ac(a2-6)Gal(b1-4)GlcNAc(b1-2)Man(a1-3)[GlcNAc(b1-4)][Neu5Ac(a2-6)Gal(b1-4)GlcNAc(b1-2)Man(a1-6)]Man(b1-4)GlcNAc(b1-4)GlcNAc
# Outline: as §1
# [31] = biological target: Neu5Ac(a2-6)Gal(b1-4)GlcNAc(b1-2)Man(a1-3)[Man(a1-6)]Man(b1-4)GlcNAc(b1-4)GlcNAc
# Outline: as §1
# [32] = biological target: Neu5Ac(a2-6)Gal(b1-4)GlcNAc(b1-2)Man(a1-3)[Neu5Ac(a2-3)Gal(b1-4)GlcNAc(b1-2)Man(a1-6)]Man(b1-4)GlcNAc(b1-4)GlcNAc
# Outline: as §1
# [33] = biological target: Neu5Ac(a2-6)Gal(b1-4)GlcNAc(b1-2)Man(a1-3)[Neu5Ac(a2-6)Gal(b1-4)GlcNAc(b1-2)Man(a1-6)]Man(b1-4)GlcNAc(b1-4)GlcNAc
# Outline: as §1
# [34] = biological target: Neu5Ac(a2-6)Gal(b1-4)GlcNAc(b1-2)Man(a1-3)[Neu5Ac(a2-6)Gal(b1-4)GlcNAc(b1-2)Man(a1-6)]Man(b1-4)GlcNAc(b1-4)[Fuc(a1-6)]GlcNAc
# Outline: as §1
# [35] = biological target: Neu5Ac(a2-6)Gal(b1-4)GlcNAc(b1-2)Man(a1-6)Man(b1-4)GlcNAc(b1-4)GlcNAc
# Outline: as §1
# [36] = biological target: Neu5Ac(a2-6)Gal(b1-4)GlcNAc(b1-2)Man(a1-6)[Gal(b1-4)GlcNAc(b1-2)Man(a1-3)]Man(b1-4)GlcNAc(b1-4)GlcNAc
# Outline: as §1
# [37] = biological target: Neu5Ac(a2-6)Gal(b1-4)GlcNAc(b1-2)Man(a1-6)[GlcNAc(b1-2)Man(a1-3)]Man(b1-4)GlcNAc(b1-4)GlcNAc
# Outline: as §1
# [38] = biological target: Neu5Ac(a2-6)Gal(b1-4)GlcNAc(b1-2)Man(a1-6)[Man(a1-3)]Man(b1-4)GlcNAc(b1-4)GlcNAc
# Outline: as §1
# [39] = biological target: Neu5Ac(a2-6)Gal(b1-4)GlcNAc(b1-2)[Neu5Ac(a2-6)Gal(b1-4)GlcNAc(b1-4)]Man(a1-3)[GlcNAc(b1-4)][Neu5Ac(a2-6)Gal(b1-4)GlcNAc(b1-2)[Neu5Ac(a2-6)Gal(b1-4)GlcNAc(b1-6)]Man(a1-6)]Man(b1-4)GlcNAc(b1-4)GlcNAc
# Outline: as §1
# [40] = biological target: Neu5Ac(a2-6)Gal(b1-4)GlcNAc(b1-2)[Neu5Ac(a2-6)Gal(b1-4)GlcNAc(b1-4)]Man(a1-3)[GlcNAc(b1-4)][Neu5Ac(a2-6)Gal(b1-4)GlcNAc(b1-4)Man(a1-6)]Man(b1-4)GlcNAc(b1-4)GlcNAc
# Outline: as §1
# [41] = biological target: Neu5Ac(a2-6)Gal(b1-4)GlcNAc(b1-2)[Neu5Ac(a2-6)Gal(b1-4)GlcNAc(b1-6)]Man(a1-6)[Neu5Ac(a2-6)Gal(b1-4)GlcNAc(b1-2)Man(a1-3)][GlcNAc(b1-4)]Man(b1-4)GlcNAc(b1-4)GlcNAc
# Outline: as §1
# [42] = biological target: Neu5Ac(a2-6)Gal(b1-4)GlcNAc(b1-3)Gal(b1-3)GlcNAc
# Outline: as §1
# [43] = biological target: Neu5Ac(a2-6)Gal(b1-4)GlcNAc(b1-3)Gal(b1-4)GlcNAc
# Outline: as §1
# [44] = biological target: Neu5Ac(a2-6)Gal(b1-4)GlcNAc(b1-3)Gal(b1-4)GlcNAc(b1-2)Man(a1-3)[Neu5Ac(a2-6)Gal(b1-4)GlcNAc(b1-3)Gal(b1-4)GlcNAc(b1-2)Man(a1-6)]GalNAc
# Outline: as §1
# [45] = biological target: Neu5Ac(a2-6)Gal(b1-4)GlcNAc(b1-3)Gal(b1-4)GlcNAc(b1-3)Gal(b1-4)GlcNAc
# Outline: as §1
# [46] = biological target: Neu5Ac(a2-6)Gal(b1-4)GlcNAc(b1-3)Gal(b1-4)GlcNAc(b1-3)Gal(b1-4)GlcNAc(b1-2)Man(a1-3)[Neu5Ac(a2-6)Gal(b1-4)GlcNAc(b1-3)Gal(b1-4)GlcNAc(b1-3)Gal(b1-4)GlcNAc(b1-2)Man(a1-6)]GalNAc
# Outline: as §1
binder,measurement,setting,value
Clec49 (Caenorhabditis elegans) (protein) MTRLTLLLFGLLGAATAQTCNTGGIYNEQFNRCYQYFTAPAQFSFAEQQCNLLGGHLASVQNGQENALLQSNAANSFKRSNYSDYWIGATDLETSGTWKWTDPSVTFDYSNWQLGEPQSGSDCAIQDKGDGTWSAIGCTSYRPYVCVTPVIMTATCPPITTPIPTTCPTPAPCPIKQCVPSCDQGWTYFSPTDFCYRVYHGEKFNDAEASCVLLGGHLASIHSLTENTFVNNIASCGIKEGKYEHLAWIGMRKVGQDWVWTDGTPSDYFNWAPKQPDNPKKELCVQTAPDLSHDKWYENWNNLECNEVMRAYICKKASIHN,glycan array binding signal (z-score),[1],-0.469
same,glycan array binding signal (z-score),[2],0.588
same,glycan array binding signal (z-score),[3],-0.785
same,glycan array binding signal (z-score),[4],-0.851
same,glycan array binding signal (z-score),[5],-0.573
same,glycan array binding signal (z-score),[6],-0.257
same,glycan array binding signal (z-score),[7],-0.256
same,glycan array binding signal (z-score),[8],1.33
same,glycan array binding signal (z-score),[9],-0.269
same,glycan array binding signal (z-score),[10],14.5
same,glycan array binding signal (z-score),[11],1.99
same,glycan array binding signal (z-score),[12],0.677
same,glycan array binding signal (z-score),[13],-0.28
same,glycan array binding signal (z-score),[14],-0.253
same,glycan array binding signal (z-score),[15],-0.418
same,glycan array binding signal (z-score),[16],0.355
same,glycan array binding signal (z-score),[17],-0.261
same,glycan array binding signal (z-score),[18],-0.075
same,glycan array binding signal (z-score),[19],0.026
same,glycan array binding signal (z-score),[20],-0.142
same,glycan array binding signal (z-score),[21],-0.639
same,glycan array binding signal (z-score),[22],0.015
same,glycan array binding signal (z-score),[23],-0.806
same,glycan array binding signal (z-score),[24],-0.317
same,glycan array binding signal (z-score),[25],-0.537
same,glycan array binding signal (z-score),[26],-0.03
same,glycan array binding signal (z-score),[27],0.494
same,glycan array binding signal (z-score),[28],0.001
same,glycan array binding signal (z-score),[29],-0.266
same,glycan array binding signal (z-score),[30],-0.797
same,glycan array binding signal (z-score),[31],0.717
same,glycan array binding signal (z-score),[32],0.348
same,glycan array binding signal (z-score),[33],1.88
same,glycan array binding signal (z-score),[34],0.251
same,glycan array binding signal (z-score),[35],-0.421
same,glycan array binding signal (z-score),[36],-0.549
same,glycan array binding signal (z-score),[37],0.526
same,glycan array binding signal (z-score),[38],0.336
same,glycan array binding signal (z-score),[39],-0.521
same,glycan array binding signal (z-score),[40],0.354
same,glycan array binding signal (z-score),[41],0.372
same,glycan array binding signal (z-score),[42],-0.498
same,glycan array binding signal (z-score),[43],-0.634
same,glycan array binding signal (z-score),[44],-0.184
same,glycan array binding signal (z-score),[45],-0.675
same,glycan array binding signal (z-score),[46],0.32
